The record followed here is the RNAGym collection of RNA variant scans (doi:10.7554/elife.90254).

The labels stand for the following.
B1: LINE1-mini (parent)
chain: GGCAGAGCUCAACACAGCGUGGCAAAGUGGCUGUGGCUAGACUGCC

Read counts are not given, so values of variants with three or more changes are uncertain.

This data set covers variants of B1. Description: self-cleavage, relative activity (ratio to wild type); higher = more cleavage; in vitro, sequencing; the parent is a self-cleaving ribozyme.
Turning to A6U G7U G35A G36U, the self-cleavage worked out at 0.09.

Regarding A6U C37A C46U, the self-cleavage came out at 0.09. To A6G U20G G27U belongs 0.03. To A6U C13U C23A C37A belongs 0.07; to A6U C13U A16C G27U G44U, 0.21; to A6U G29U G30U C31U G44C, 0.08.

For the variant A6U C10A U28G G35U, the self-cleavage is 0.01. In the case of A6U G29U A39C, the self-cleavage came to 0.15.

In the case of A6U G33U C37U G44A, the self-cleavage came to 0.02. With A6G U20G G30A U34C G36A G44U, the self-cleavage worked out at 0.01. For A6G U9G G36U A39G C45G, the self-cleavage came to 0.14. The result for A6G U9G G22C C31G reads 0.05. Consider A6U C13G U20A C23G C42G, for which the self-cleavage amounted to 0.02. To A6U C10U A14U A25C belongs 0.01; to A6U A12C A26U G30C C37U A39C, 0.01. The result for A6U G19U U28A reads 0.28.

For A6U G7U C8G A26C G33U, the self-cleavage was determined as 0. The result for A6G U28A C31U reads 0.02; that for A6U C18G G19U A41U, 0.06; that for A6G U20C C31U C45U, 0.02. The result for A6U C15A G29U reads 0.04; that for A6U A24G A26C U28G C31U, 0.39; that for A6U C18G G40U, 0.07. To A6U C13U C23U belongs 0.09; to A6U C8G C15U C23A, 0.08. As for A6U A12U A25U A26G G44C, the self-cleavage is 0.34.

Regarding A6U A11C C15G A24C, the self-cleavage came out at 0.01. The result for A6U G30C C37U reads 0.14; that for A6U C23G C37A, 0.16. On to A6U G19A G36U, for which the self-cleavage came out at 0.05. The result for A6U G27U G44C reads 1.81. The result for A6U G27U G44A reads 0.56; that for A6U C8G U34G G35U, 0.03; that for A6U C8G A12C G33U, 0.02. In the case of A6U G7A U9A U34G, the self-cleavage came to 0.05. In the case of A6U A39U C42U, the self-cleavage came to 1.23. The result for A6G U34A A41C C42A reads 0.02; that for A6U C10A G30U U32C U34A G36U, 0.01. The result for A6U C8A C15G G30U C37U reads 0.12; that for A6U G7U U28C G30U A39U, 0.01; that for A6U A14G C45A, 0.09. The result for A6U G7A G36U reads 0.07; that for A6U G7A G36A, 0.21. Regarding A6U C8G C18G, the self-cleavage came to 0.08. The result for A6G U9C A26G G29U U34G reads 0.01. The result for A6U G36A U38G A41U reads 0.04; that for A6U C10G A16C U20C, 0.02.

Take A6G U9C G40U: the self-cleavage amounted to 0.

For A6U A16G U20G, the self-cleavage came to 0.12.

Regarding A6G U9C G27C A39C, the self-cleavage came to 0.01. To A6U G7A G19C G30U C37U belongs 0.01.

Consider A6U G21U G30C C42U C46A, for which the self-cleavage worked out at 0.37. To A6U G17C G40C belongs 0.04. To A6U C13A G19C G30A G36A G40C belongs 0.22. Regarding A6U A11G C45G, the self-cleavage is 0.01. The result for A6U A25U A26U reads 0.37; that for A6U C15U C45U, 0.62; that for A6U C8U U34G, 0.58. To A6U C10A C13A belongs 0.02. For A6U C10A G40A, the self-cleavage stood at 0.01.

Consider A6U G36C C37U, for which the self-cleavage came to 0.05. The result for A6U A24G G27A G44C reads 0.14; that for A6U C15G U38C, 0.02; that for A6U A12C C13U G22C G44A, 0.02. For A6U A12U G19C A26G A41C, the self-cleavage was 0.01. The result for A6U C10G G22A C46U reads 0.03. To A6U A12G C23A belongs 0.01.

Turning to A6U A24C U34G C37A, the self-cleavage came to 0.06.

With A6U C8G C23G A25C U32A, the self-cleavage amounted to 0.01.

As for A6U C8U U9C A12C G29U C37G, the self-cleavage amounted to 0.01. The result for A6U C13A G30U U38A reads 0.08; that for A6U A12C A24G G33U, 0.04; that for A6U A26C G36A C46A, 0.05. Take A6U G7A G22U C31U A39C: the self-cleavage was 0.11.

A6U G27C U28A: the self-cleavage was found to be 0.32. On to A6G U32C G35A A39U, for which the self-cleavage came to 0.02. The result for A6U C37U A41G reads 0.05; that for A6U A26C U28A, 0.67. Consider A6U G7A A11C A16C U32A G35A C46G, for which the self-cleavage turned out to be 0.01. For the variant A6U C13G G22A G27U A41G, the self-cleavage is 0.41. To A6U G7U C37G belongs 0.01. The result for A6U A25U G27A C31U reads 0.42; that for A6U A12G G40U, 0.08.

With A6U A12U G22U A39U A41C, the self-cleavage came out at 0. In the case of A6U G7A A16U G21U G22A C42G G44A, the self-cleavage amounted to 0.01. To A6U G29A G35A G40A belongs 0.1; to A6G U9C A39C, 0.02. The result for A6U A16C U28A G33A reads 0.07; that for A6U C10A U38A, 0.05.

As to A6U A11C U20C G29C, the self-cleavage was 0.06. Regarding A6U A14U G17C G22A U34A, the self-cleavage turned out to be 0.11. To A6G U28A U32A C42G belongs 0.06. The result for A6U C18A C37U G40C reads 0.01; that for A6U G36A A39C C42G, 0.03.

For A6U A11G C13A A14G, the self-cleavage stood at 0.01. In the case of A6U G19A C31A G35A G40C C45G, the self-cleavage stood at 0.04.

A6G U9G A11G C23U: the self-cleavage came to 0.02.

With A6U A25U U28G G44C, the self-cleavage came to 0.63. The result for A6U C13U G30A reads 0.19; that for A6U G19U C46A, 0.49. The result for A6G U9C U32A A39U C46U reads 0. On to A6U A25U U38C, for which the self-cleavage was 0.18.

In the case of A6G U9C A25C, the self-cleavage was 0.05. The result for A6U C8U C10U A11U U28G G44C C45A reads 0; that for A6U C10A G33C C42U, 0.01. The result for A6U G7C G29U U38C reads 0.08; that for A6U G7A U43A, 0.07. The result for A6U A14C C23U U28A G33C reads 0.01; that for A6U C8U A24C G27C, 0.55. Take A6U G22U U28C G29A G30C: the self-cleavage is 0.5. The result for A6U G33A A39G U43A reads 0.19; that for A6U G21C C23A U38C C42U, 0.06. In the case of A6U C8U A14U U20A G27U G30U G33U C42G, the self-cleavage amounted to 0.29.

For the variant A6U A11U C18A U28G G40C, the self-cleavage came to 0.01. To A6U U9A A12U belongs 0.37; to A6U U9A C13A A14U A16G G21C U28C, 0.43; to A6U C10U G19A G35U U38A A39G A41C U43G, 0.07.

With A6U G27A C37U C42U, the self-cleavage stood at 0.03. With A6U G17A U38A, the self-cleavage worked out at 0.1.

Regarding A6U G27A G35A, the self-cleavage is 1.

As to A6U G35C C42U, the self-cleavage was found to be 0.1.

As to A6U C45G C46A, the self-cleavage came to 0.25. For A6U G7U C15G U28A, the self-cleavage was found to be 0.01.

Regarding A6U G22A C42U C45A, the self-cleavage is 0.24. Regarding A6U C10A G36U, the self-cleavage was 0.05. To A6U A14U G35U belongs 0.06; to A6U C8A C18A G44A, 0.73; to A6U G17C C18A U32G U34A, 0.04. The result for A6U G27C G36A reads 0.05; that for A6U G27U U34G G36U, 0.05. A6U C10A C45U: the self-cleavage worked out at 0.06. To A6G U9G A25U G33A G36C A41C belongs 0; to A6G U20C G29C, 0.04. The result for A6U A16U G27U reads 0.2; that for A6U C31A G33U C37G, 0.02; that for A6U C8U G19C G21C G22A C31U, 0.02. Consider A6U C23A G40U, for which the self-cleavage came out at 0.36. The result for A6U C10U A12C reads 0.02; that for A6G U38G C42A, 0.

In the case of A6U G27C U43A, the self-cleavage was 0.11. A6U C18A G27U A39C: the self-cleavage came to 0.11. To A6U A12U A16C C42G belongs 0.02; to A6U G17A U28A A39U, 0.02. To A6U G7C G17C G35U G36A belongs 0.08.

A6U A16C A25U G27C: the self-cleavage worked out at 0.09. The result for A6G U38C C42G reads 0.33. For the variant A6U C18U A41G, the self-cleavage was determined as 1.17.

In the case of A6U G21U G44A, the self-cleavage was found to be 0.46. The result for A6G U9G G29C G36U reads 0.02; that for A6U C8G C31U, 0.03; that for A6U C13U G27U C46U, 0.09. As to A6U C13U A26G, the self-cleavage came out at 0.01.

Turning to A6U C15A U34G, the self-cleavage was found to be 0.08. The result for A6U G22U A39C G40C A41C reads 0.1. The result for A6U C15U C23G U32G reads 0.03; that for A6U C18U G21C A26G, 0.62. Take A6G U28G G30A C31G G40U: the self-cleavage was 0.03. The result for A6U G7C A25G G33A G36A reads 0.14.

Consider A6U C8G A14U C37U, for which the self-cleavage turned out to be 0.16. The result for A6U G7C C8G A14C U20C C37G reads 0.14; that for A6U C13A A25G, 0.16; that for A6U G21U G27A G33A, 0.22. The result for A6U C8G A12C C13G G30U reads 0.03.

Take A6U C10U G35U: the self-cleavage stood at 0.03. Regarding A6U A14C G36U A41C, the self-cleavage turned out to be 0.02. On to A6U G35U A39C A41U, for which the self-cleavage worked out at 0.19. To A6U C15A U38A G40C belongs 0.06.
